Laboratory results: article PMC6168700
Results are given in words; binding and its absence hold for the method and conditions named. Some entries that bind do so weakly or less than the wild type. For part of these data: Tags and fused reporters may be left off the sequences shown.

By UniProt entry, the sequences of proteins in these tests, tags left out.
UniProt Q03532: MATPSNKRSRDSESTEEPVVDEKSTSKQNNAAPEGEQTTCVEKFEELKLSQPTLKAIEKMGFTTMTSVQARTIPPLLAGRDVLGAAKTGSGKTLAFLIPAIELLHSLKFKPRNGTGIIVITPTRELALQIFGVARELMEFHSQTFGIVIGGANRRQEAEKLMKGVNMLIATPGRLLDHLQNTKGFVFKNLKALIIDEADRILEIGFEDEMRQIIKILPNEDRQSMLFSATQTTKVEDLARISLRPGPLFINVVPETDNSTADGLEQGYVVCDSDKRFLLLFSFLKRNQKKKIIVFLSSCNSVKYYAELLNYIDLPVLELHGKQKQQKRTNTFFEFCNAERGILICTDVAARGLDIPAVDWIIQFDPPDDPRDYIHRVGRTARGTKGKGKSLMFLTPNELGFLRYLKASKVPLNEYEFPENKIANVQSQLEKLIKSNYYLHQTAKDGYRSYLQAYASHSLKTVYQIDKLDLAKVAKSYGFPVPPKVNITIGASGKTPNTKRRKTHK

T1: Full-length Rok1, His-tagged (UniProt P45818)
T1 sequence: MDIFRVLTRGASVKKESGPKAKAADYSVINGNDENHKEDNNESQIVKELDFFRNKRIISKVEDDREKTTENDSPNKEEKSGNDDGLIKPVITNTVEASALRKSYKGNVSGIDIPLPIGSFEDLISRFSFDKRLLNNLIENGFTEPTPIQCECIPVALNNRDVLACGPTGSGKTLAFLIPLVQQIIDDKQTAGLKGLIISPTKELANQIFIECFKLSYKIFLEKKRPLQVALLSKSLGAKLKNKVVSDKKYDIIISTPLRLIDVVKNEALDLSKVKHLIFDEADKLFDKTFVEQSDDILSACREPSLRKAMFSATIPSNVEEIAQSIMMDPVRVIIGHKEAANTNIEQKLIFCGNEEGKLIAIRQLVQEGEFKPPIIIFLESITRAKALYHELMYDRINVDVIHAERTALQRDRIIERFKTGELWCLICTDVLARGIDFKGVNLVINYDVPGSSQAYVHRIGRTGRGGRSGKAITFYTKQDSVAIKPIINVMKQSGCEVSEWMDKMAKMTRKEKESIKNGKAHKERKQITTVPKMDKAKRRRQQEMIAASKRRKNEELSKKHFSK

T2: Full-length Utp22, His-tagged (UniProt P53254)
T2 sequence: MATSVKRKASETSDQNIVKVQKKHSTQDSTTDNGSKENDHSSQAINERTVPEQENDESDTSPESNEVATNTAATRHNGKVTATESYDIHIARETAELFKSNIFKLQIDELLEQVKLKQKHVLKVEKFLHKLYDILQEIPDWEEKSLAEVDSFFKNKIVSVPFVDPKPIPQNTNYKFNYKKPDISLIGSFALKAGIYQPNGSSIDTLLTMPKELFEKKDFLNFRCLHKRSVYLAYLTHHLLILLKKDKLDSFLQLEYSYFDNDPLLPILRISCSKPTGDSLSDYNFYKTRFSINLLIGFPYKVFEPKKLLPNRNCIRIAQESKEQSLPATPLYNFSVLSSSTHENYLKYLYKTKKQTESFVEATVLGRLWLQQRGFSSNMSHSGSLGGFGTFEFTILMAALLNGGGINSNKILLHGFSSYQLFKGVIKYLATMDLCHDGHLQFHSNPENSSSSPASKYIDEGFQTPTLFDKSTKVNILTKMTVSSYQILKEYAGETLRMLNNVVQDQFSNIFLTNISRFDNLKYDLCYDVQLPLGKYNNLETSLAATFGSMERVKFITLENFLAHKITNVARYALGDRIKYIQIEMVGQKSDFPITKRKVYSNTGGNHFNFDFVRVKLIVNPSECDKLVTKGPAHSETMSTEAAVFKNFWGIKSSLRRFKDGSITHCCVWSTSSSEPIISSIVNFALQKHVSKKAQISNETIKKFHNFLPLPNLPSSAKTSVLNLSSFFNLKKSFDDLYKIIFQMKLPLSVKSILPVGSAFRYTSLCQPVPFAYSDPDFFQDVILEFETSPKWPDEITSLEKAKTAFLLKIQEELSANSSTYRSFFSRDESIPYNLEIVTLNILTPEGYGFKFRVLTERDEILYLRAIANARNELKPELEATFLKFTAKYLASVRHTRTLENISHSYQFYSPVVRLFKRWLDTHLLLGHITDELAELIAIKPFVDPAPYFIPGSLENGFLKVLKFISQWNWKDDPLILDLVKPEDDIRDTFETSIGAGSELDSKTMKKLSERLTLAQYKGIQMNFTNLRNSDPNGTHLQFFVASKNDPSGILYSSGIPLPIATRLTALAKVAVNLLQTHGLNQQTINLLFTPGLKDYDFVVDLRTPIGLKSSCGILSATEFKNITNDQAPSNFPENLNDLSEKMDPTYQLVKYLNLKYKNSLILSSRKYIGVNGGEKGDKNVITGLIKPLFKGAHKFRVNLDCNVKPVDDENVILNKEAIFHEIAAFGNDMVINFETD

T3: Full-length Kre33, His-tagged (UniProt P53914)
T3 sequence: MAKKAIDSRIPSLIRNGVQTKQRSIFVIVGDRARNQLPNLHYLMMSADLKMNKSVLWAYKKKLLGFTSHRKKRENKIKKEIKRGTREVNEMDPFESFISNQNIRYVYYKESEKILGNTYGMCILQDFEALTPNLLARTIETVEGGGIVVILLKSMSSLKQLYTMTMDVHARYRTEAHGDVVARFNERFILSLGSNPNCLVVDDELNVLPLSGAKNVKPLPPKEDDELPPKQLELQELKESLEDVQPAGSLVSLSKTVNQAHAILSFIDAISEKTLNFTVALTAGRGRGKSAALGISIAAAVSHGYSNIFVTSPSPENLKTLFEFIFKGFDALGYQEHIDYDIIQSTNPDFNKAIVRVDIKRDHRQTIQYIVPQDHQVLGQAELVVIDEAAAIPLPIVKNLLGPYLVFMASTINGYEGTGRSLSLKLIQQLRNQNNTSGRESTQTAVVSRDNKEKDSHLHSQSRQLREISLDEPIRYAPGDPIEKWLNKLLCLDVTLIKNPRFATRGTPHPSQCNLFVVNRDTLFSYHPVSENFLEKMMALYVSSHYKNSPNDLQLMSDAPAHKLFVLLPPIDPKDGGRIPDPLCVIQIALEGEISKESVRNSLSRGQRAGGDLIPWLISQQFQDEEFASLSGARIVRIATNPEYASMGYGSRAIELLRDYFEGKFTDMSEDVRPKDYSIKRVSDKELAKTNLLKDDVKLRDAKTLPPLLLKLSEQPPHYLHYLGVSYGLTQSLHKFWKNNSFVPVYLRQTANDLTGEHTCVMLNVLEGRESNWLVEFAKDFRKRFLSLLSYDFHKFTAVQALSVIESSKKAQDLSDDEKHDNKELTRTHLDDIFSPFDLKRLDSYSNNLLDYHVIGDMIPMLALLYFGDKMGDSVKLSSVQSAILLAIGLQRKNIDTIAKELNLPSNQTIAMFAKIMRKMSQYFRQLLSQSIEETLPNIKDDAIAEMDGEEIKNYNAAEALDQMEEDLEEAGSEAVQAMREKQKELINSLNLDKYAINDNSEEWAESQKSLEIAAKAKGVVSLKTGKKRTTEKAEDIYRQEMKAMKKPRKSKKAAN

B1: Rrp5 (1083–1729), the 3 last S1 domains and the TPR region (domain or fragment, UniProt Q05022 1083-1729)
chain: STIKVGDELPGRVLKIAEKYVLLDLGNKVTGISFITDALNDFSLTLKEAFEDKINNVIPTTVLSVDEQNKKIELSLRPATAKTRSIKSHEDLKQGEIVDGIVKNVNDKGIFVYLSRKVEAFVPVSKLSDSYLKEWKKFYKPMQYVLGKVVTCDEDSRISLTLRESEINGDLKVLKTYSDIKAGDVFEGTIKSVTDFGVFVKLDNTVNVTGLAHITEIADKKPEDLSALFGVGDRVKAIVLKTNPEKKQISLSLKASHFSKEAELASTTTTTTTVDQLEKEDEDEVMADAGFNDSDSESDIGDQNTEVADRKPETSSDGLSLSAGFDWTASILDQAQEEEESDQDQEDFTENKKHKHKRRKENVVQDKTIDINTRAPESVADFERLLIGNPNSSVVWMNYMAFQLQLSEIEKARELAERALKTINFREEAEKLNIWIAMLNLENTFGTEETLEEVFSRACQYMDSYTIHTKLLGIYEISEKFDKAAELFKATAKKFGGEKVSIWVSWGDFLISHNEEQEARTILGNALKALPKRNHIEVVRKFAQLEFAKGDPERGRSLFEGLVADAPKRIDLWNVYVDQEVKAKDKKKVEDLFERIITKKITRKQAKFFFNKWLQFEESEGDEKTIEYVKAKATEYVASHESQKADE
B2: Rrp5 (1400–1729), the TPR region alone (domain or fragment, UniProt Q05022 1400-1729)
chain: GLSLSAGFDWTASILDQAQEEEESDQDQEDFTENKKHKHKRRKENVVQDKTIDINTRAPESVADFERLLIGNPNSSVVWMNYMAFQLQLSEIEKARELAERALKTINFREEAEKLNIWIAMLNLENTFGTEETLEEVFSRACQYMDSYTIHTKLLGIYEISEKFDKAAELFKATAKKFGGEKVSIWVSWGDFLISHNEEQEARTILGNALKALPKRNHIEVVRKFAQLEFAKGDPERGRSLFEGLVADAPKRIDLWNVYVDQEVKAKDKKKVEDLFERIITKKITRKQAKFFFNKWLQFEESEGDEKTIEYVKAKATEYVASHESQKADE
B3: Rrp5 (1083–1343), the last 3 S1 domains only (domain or fragment, UniProt Q05022 1083-1343)
chain: STIKVGDELPGRVLKIAEKYVLLDLGNKVTGISFITDALNDFSLTLKEAFEDKINNVIPTTVLSVDEQNKKIELSLRPATAKTRSIKSHEDLKQGEIVDGIVKNVNDKGIFVYLSRKVEAFVPVSKLSDSYLKEWKKFYKPMQYVLGKVVTCDEDSRISLTLRESEINGDLKVLKTYSDIKAGDVFEGTIKSVTDFGVFVKLDNTVNVTGLAHITEIADKKPEDLSALFGVGDRVKAIVLKTNPEKKQISLSLKASHFSKE

These binders were tested against T1, Full-length Rok1, His-tagged (assay: pull-down; His-tagged Rok1 held on Ni-NTA beads (2–4 μg), mixed with 2–4 μg of a purified Rrp5 construct in ~100 μL, in the presence of 2 mM ATP, 30 min on ice, 4 washes with wash buffer; SDS/PAGE, Coomassie Blue; both purified).

binding	Binder
no binding (tested: 2–4 μg in ~ 100 μL)	B1
binds weakly	B2
no binding (tested: 2–4 μg in ~ 100 μL)	B3

Each binder was assayed against T2, Full-length Utp22, His-tagged (assay: pull-down; His-tagged Kre33, Has1 or Utp22 held on Ni-NTA beads (2–4 μg), mixed with 2–4 μg of a purified Rrp5 construct in ~100 μL, 30 min on ice, 4 washes with wash buffer; SDS/PAGE, Coomassie Blue; both purified).

binding	Binder
no binding (tested: 2–4 μg in ~ 100 μL)	B1
no binding (tested: 2–4 μg in ~ 100 μL)	B2
no binding (tested: 2–4 μg in ~ 100 μL)	B3

The binders below were run against T3, Full-length Kre33, His-tagged in the same assay as above.

binding	Binder
no binding (tested: 2–4 μg in ~ 100 μL)	B1
no binding (tested: 2–4 μg in ~ 100 μL)	B2
no binding (tested: 2–4 μg in ~ 100 μL)	B3

Each binder was assayed against Full-length Has1, His-tagged (UniProt Q03532) in the same assay as above.

binding	Binder
no binding (tested: 2–4 μg in ~ 100 μL)	B1
no binding (tested: 2–4 μg in ~ 100 μL)	B2
no binding (tested: 2–4 μg in ~ 100 μL)	B3
